Data as given in PubChem BioAssay AID1794844 (National Center for Advancing Translational Sciences (NCATS), 2023).
The campaign covered roughly 2,800 compounds. Fewer than 10 were called active. Inconclusive means that the source gave no clear call. Such entries were picked first, then a sample of the others. Calls come from the whole dose curve; as a rule, active = well fitted inhibition curve with a large enough effect; inconclusive = small, poorly fitted or top-dose-only effect; inactive = no such curve, though single readings can be large or run the other way. Where the call is inconclusive, the potency comes from a doubtful curve fit.

These molecules were tested against Metallo-beta-lactamase type 2 (Klebsiella pneumoniae) (UniProt C7C422) (assay: qHTS to identify inhibitors of the New Delhi Metallo-beta-lactamase (NDM): Nitrocefin screen against the machine-based learning selections.). Conditions: NDM-1 enzyme, nitrocefin hydrolysis, absorbance 485 nm; activity, negative = inhibition: at 38.4 µM (top of the series) unless noted.
UniProt C7C422, sequence (C7C422 whole entry, looked up): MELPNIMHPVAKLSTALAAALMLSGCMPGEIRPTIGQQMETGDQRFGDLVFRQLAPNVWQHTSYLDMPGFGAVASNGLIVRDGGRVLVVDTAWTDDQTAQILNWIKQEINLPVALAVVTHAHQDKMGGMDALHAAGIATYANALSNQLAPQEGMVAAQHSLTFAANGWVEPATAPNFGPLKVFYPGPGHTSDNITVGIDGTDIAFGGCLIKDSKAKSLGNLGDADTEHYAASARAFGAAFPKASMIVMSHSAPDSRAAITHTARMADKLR
How it was run: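 Hydrolysis by 2 nM NDM-1 was followed by absorbance after >30 min compound preincubation in HEPES pH 7.0 buffer with 1 uM Zn2SO4. For nitrocefin (16.7 uM, 15 min, 485 nm) and meropenem (50 uM, 30 min, 300 nm), each substrate ran on separate plates.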
Potency is the fitted concentration of half-maximal effect; tags give direction and shape of the fitted curve.
Throughout, for activity, negative = inhibition: % of control where 0% means no effect.

| Compound | Potency | activity, negative = inhibition |
| --- | --- | --- |
| O=S(=O)(NC[C@H]1O[C@@H](CO)[C@@H](O)[C@H]1N1CCCC1)c1cccs1 | inconclusive: 21.7 µM [inhibitor, partial curve] |  |
| O=C(O)c1cc(Br)cc(S(=O)(=O)NCc2ccccn2)c1 | inconclusive: 18.9 µM [inhibitor, single point] |  |
| O=C(Cn1ccn2nc3c(c2c1=O)CCCC3)NCc1ccc2c(c1)OCO2 |  | inactive: -5.33% |
| NC(=O)C1CCCN(CCNc2cc(-c3ccccc3)nc3ccnn23)C1 (configuration not stated) |  | inactive: 2.07% |
| C[S+](=O)([O-])Nc1cccc(Nc2cnc3ccc(-c4cccc(CO)c4)nn23)c1 | inconclusive: 34.4 µM [inhibitor, single point] |  |
| Cc1cccc(N(CC(=O)N[C@H]2CC[C@H]2NC2CCCC2)S(C)(=O)=O)c1 |  | inactive: -5.09% |
| CCN1CCC2(CCC1=O)CN(Cc1nc3c(cnn3C)c(=O)[nH]1)CCN2C (configuration not stated) | inconclusive: 13.4 µM [inhibitor, partial curve] |  |
| CN(Cc1cn(-c2ccccc2)nn1)Cc1nccn1Cc1ccccc1 | inconclusive: 29.9 µM [inhibitor, single point] |  |
| Cc1ccccc1Nc1cnc2ccc(-c3cccc(CO)c3)nn12 | inconclusive: 27.3 µM [inhibitor, partial curve, poor fit] |  |
| O=C(Nc1ccccc1)O[C@@H]1CO[C@H]2[C@@H]1OC[C@@H]2NS(=O)(=O)c1cccc2cccnc12 |  | inactive: 4.41% |
| CN(Cc1ccc2nonc2c1)C(C(=O)O)c1ccc(-c2ccn[nH]2)cc1 (configuration not stated) | inconclusive: 15 µM [inhibitor, partial curve] |  |
| O=C(c1ccoc1)N1CCCn2cc(-c3ccccc3)nc21 |  | inactive: 3.3% |
| Cc1ccnc(N2CCN(C3CCC4(CCNCC4)CC3)CC2)c1 | inconclusive: 11.9 µM [inhibitor, partial curve] |  |
| Cc1nc(NCc2ccc(C(=O)N3CCCCC3)cc2)cc(C2CC(N)C2)n1 (configuration not stated) | inconclusive: 21.2 µM [inhibitor, single point] |  |
| COc1cccc(NC(=O)O[C@@H]2CC[C@]3(C)C(CC[C@@H](O)[C@H]3CC(=O)N3CCCC3)[C@]2(C)CO)c1 (some centres not stated) |  | inactive: 1.26% |
| O=C(Cc1c[nH]c2ncc(-c3ccccc3)cc12)NCCc1ccccc1 | inconclusive: 0.0014 µM [inhibitor, full curve] |  |
| O=C(C[C@@H]1CCNC[C@@H]1Cc1cc(CC2CCCCC2)on1)NC1CC1 |  | inactive: -5.16% [at 57.5 µM] |
| CN(C)Cc1nnc(C2CC(NC(=O)Cc3c(F)cccc3Cl)C2)n1C (configuration not stated) | inconclusive: 18.9 µM [inhibitor, partial curve] |  |
| COc1ccc(CC(=O)N2CC(CO)C3(CCNCC3)C2)cc1 (configuration not stated) |  | inactive: -12.8% |
| Cc1noc(C)c1CNCC1(COc2cnccn2)C[C@@H](O)[C@@H](O)C1 (some centres not stated) | inconclusive: 6.86 µM [inhibitor, partial curve, poor fit] |  |
| CSCCCN1C[C@@H](C(=O)O)C[C@H](C(=O)NCc2ccccn2)C1 | inconclusive: 18.9 µM [inhibitor, single point] |  |

| Compound | Potency | activity, negative = inhibition |
| --- | --- | --- |
| CC1CCN([C@@H]2[C@H](O)[C@H](CO)O[C@@H]2CNC(=O)c2ccccc2)CC1 | inconclusive: 13.7 µM [inhibitor, full curve] |  |
| O=C(c1ccc(NCc2ccncc2)cc1)N1CCCC2(CCNCC2)CC1 | inconclusive: 29.9 µM [inhibitor, single point] |  |
| CCNC(=O)[C@@H]1CCCN1[C@@H](C(=O)NC)c1ccccc1F | inconclusive: 15.4 µM [inhibitor, partial curve] |  |
| O=c1n(-c2ccc(C(F)(F)F)cc2)nc2n1CCN(Cc1ccc(C(F)(F)F)cc1)C2 | inconclusive: 15 µM [inhibitor, partial curve] |  |
| Cc1ccc(-c2nc(CNC(=O)C3CCNC3)[nH]c2-c2ccccn2)cc1 (configuration not stated) | inconclusive: 29.9 µM [inhibitor, single point] |  |
| CN(Cc1ccc(F)cc1)c1ccc2ncc(Nc3cccc(O)c3)n2n1 | inconclusive: 43.3 µM [inhibitor, single point] |  |
| CCOC(=O)N1CCC(N2CCCCC(N)C2)CC1 (configuration not stated) | inconclusive: 7.51 µM [inhibitor, full curve] |  |
| CN1CC2(CCN(C(=O)c3ccccc3-c3nn[nH]n3)CC2)CC1C(=O)O (configuration not stated) | active: 6.69 µM |  |
| CC[C@H]1CN(C(=O)NC(C)C)CC[C@H]1CC(=O)N(C)CCC#N |  | inactive: -12.7% [at 57.5 µM] |
| COCCO[C@H]1C(=O)N(C2CCN(C(=O)c3cnccn3)CC2)[C@H]1c1ccncc1 |  | inactive: 5.4% |
| OC(c1nc(Nc2ccc(N3CCOCC3)cc2)n[nH]1)C1CC1 (configuration not stated) | inconclusive: 30.6 µM [inhibitor, single point] |  |
| O[C@@H]1[C@@H](Cn2cc(-c3cccnc3)nn2)C[C@@H](NC2CCOCC2)[C@@H]1O | inconclusive: 21.2 µM [inhibitor, single point] |  |
| COCCNC(=O)C[C@@H]1O[C@H](CNC(=O)c2cccc(F)c2)[C@@H](O)[C@H]1O |  | inactive: -2.43% [at 57.5 µM] |
| O=[S+]([O-])(c1cccnc1)N1CCNc2cnc(Nc3ccc(-n4ccnc4)cc3)nc2C1 |  | inactive: -18.7% |
| Cc1noc2c(-c3cccnc3NC3CCC(O)CC3)cc(-c3ccccc3)nc12 (configuration not stated) | inconclusive: 27.3 µM [inhibitor, partial curve] |  |
| Cn1ccnc1CNC[C@H]1Cn2c(-c3ccccc3)cnc2CO1 | inconclusive: 30.6 µM [inhibitor, single point] |  |
| c1csc(-c2[nH]ncc2CNC2CCC3(CCNCC3)CC2)c1 | inconclusive: 16.8 µM [inhibitor, partial curve, poor fit] |  |
| Cc1noc([C@@H](C)NC(=O)Nc2cccnc2)c1C(=O)O | inconclusive: 24.3 µM [inhibitor, partial curve] |  |
| O=C(N[C@H](C1CCNCC1)C1CC(O)C1)c1ccc2nccnc2c1 (some centres not stated) | inconclusive: 18.9 µM [inhibitor, partial curve] |  |
| COC(=O)[C@@H]1Cc2ncn(C)c2CN1S(=O)(=O)c1cccc(C(F)(F)F)c1 | inconclusive: 17.2 µM [inhibitor, partial curve, poor fit] |  |
| CC(C)(C)c1nnc([C@H]2CCN(Cc3ccco3)C2)o1 |  | inactive: 2.73% [at 76.7 µM] |
